{
  "source": "paper PMC10726135",
  "note": "The other results are listed elsewhere or left out. At the low end of the ranking, values are background and their order means little. Measured with an extract: partners may take part in the binding.",
  "data": [
    {"target": "T1, HNF4alpha2 (COS-7 nuclear extract) (UniProt P41235)", "T1 sequence": "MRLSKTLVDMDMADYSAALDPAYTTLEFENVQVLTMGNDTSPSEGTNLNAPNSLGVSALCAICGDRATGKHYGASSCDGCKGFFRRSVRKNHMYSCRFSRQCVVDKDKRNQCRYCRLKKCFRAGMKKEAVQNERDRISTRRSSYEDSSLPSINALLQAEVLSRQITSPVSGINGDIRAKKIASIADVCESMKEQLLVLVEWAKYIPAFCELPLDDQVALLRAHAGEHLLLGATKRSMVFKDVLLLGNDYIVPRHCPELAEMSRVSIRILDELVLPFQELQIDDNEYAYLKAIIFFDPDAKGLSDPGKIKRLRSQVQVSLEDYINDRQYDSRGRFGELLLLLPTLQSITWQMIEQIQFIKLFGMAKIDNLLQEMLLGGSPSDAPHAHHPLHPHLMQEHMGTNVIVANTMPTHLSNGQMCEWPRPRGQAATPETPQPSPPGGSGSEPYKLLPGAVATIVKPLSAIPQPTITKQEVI", "assay": "protein-binding microarray", "conditions": "COS-7 nuclear extract on double-stranded Agilent 4x180k PBM; binding buffer, salt, pH and temperature not given; high values mean tight binding; double strand, one strand shown; sequences stand for … in …GCCTAGGGAGATTAGAGTATCGGTCGA", "values": [
      {"sequence": "ATTTGCCCTGAAGACATGAAAAGTGGAATG", "binding signal (log2 normalized intensity)": 1.6},
      {"sequence": "TCTTTAAGGACCACATCAAAGGTCATCTCT", "binding signal (log2 normalized intensity)": 4.15},
      {"sequence": "GAGAAGAAATGATGGGTGCCACTTCTGAGC", "binding signal (log2 normalized intensity)": -1.19},
      {"sequence": "GTGCGTTCATCTCACAGAGTGGAGTCTTCC", "binding signal (log2 normalized intensity)": -0.712},
      {"sequence": "TGCAGCAAAGTCCAGGCATACTTCCTGCTC", "binding signal (log2 normalized intensity)": -1.14},
      {"sequence": "ACAAGAATGGTCATTCTCTGTTGCATGGTT", "binding signal (log2 normalized intensity)": 0.97},
      {"sequence": "GGCTTTAGAGTTGTAGCTCTCAGCTCCTAC", "binding signal (log2 normalized intensity)": -1.06},
      {"sequence": "TGGGAGTTGTGGTCCGCAGGGCTGCCTCGC", "binding signal (log2 normalized intensity)": -1.12},
      {"sequence": "GGTGGGCACCCCTGCCCCCATGTTGTTCAA", "binding signal (log2 normalized intensity)": 3.7},
      {"sequence": "CCCTATTGGGCTAGCCGCTCCTCCCACGTC", "binding signal (log2 normalized intensity)": -1.1},
      {"sequence": "CCGCTGATCCCGGGAGGGAGAGAAGGACAT", "binding signal (log2 normalized intensity)": -1.27},
      {"sequence": "ACTTTCATCTGAGTCTCAGCAATTAACAGG", "binding signal (log2 normalized intensity)": 0.82},
      {"sequence": "AGTGTTTCAAAGGAGTGTCTTTCTCCTTGA", "binding signal (log2 normalized intensity)": 1.09},
      {"sequence": "TAATAACAGACCATGCCATGCATTTCAGAA", "binding signal (log2 normalized intensity)": -1},
      {"sequence": "ATTCCTAAGTTCCAAAGGCCATCCACATTC", "binding signal (log2 normalized intensity)": 1.84},
      {"sequence": "CATTCCTGCACAGGACTGCTCTCTACTCAG", "binding signal (log2 normalized intensity)": -1.14},
      {"sequence": "CTTCGCAGCCCAGTGGTAATGGAGCTGAAA", "binding signal (log2 normalized intensity)": -1.08},
      {"sequence": "GCCCCAGGTGAACCAGGGTGCAATTCGCAT", "binding signal (log2 normalized intensity)": -0.848},
      {"sequence": "TATTTGATGATGAAGCAACATTAAACACTA", "binding signal (log2 normalized intensity)": -1.16},
      {"sequence": "TCACTATCTGGGCCAAGGCAGATATACCAG", "binding signal (log2 normalized intensity)": -1.23},
      {"sequence": "GTGTGACTGAGGGCTGACATGTCTTCTCTC", "binding signal (log2 normalized intensity)": 0.0277},
      {"sequence": "CACCCTTTTTTTTCTTTCTTTTCCCAAACC", "binding signal (log2 normalized intensity)": 2.13},
      {"sequence": "CAGCTTCATTCCAGCCCCATTCTGTGCTGG", "binding signal (log2 normalized intensity)": -1.08},
      {"sequence": "AAGGCCTTTCATACGTTTAACAGTTCCTCC", "binding signal (log2 normalized intensity)": -0.815},
      {"sequence": "AGAGGAATTGTTCAACATGGTGACTCTAGT", "binding signal (log2 normalized intensity)": -0.00599},
      {"sequence": "TGCGAGGTTACAGGGTTCAACACGTGGTAT", "binding signal (log2 normalized intensity)": 2.24},
      {"sequence": "AGACCTTTGGGTAGGAATAGAGCTCTAAAC", "binding signal (log2 normalized intensity)": 0.147},
      {"sequence": "CTTCCAAGGCTGCAAGCAAACCTGCCCTTT", "binding signal (log2 normalized intensity)": 3.84},
      {"sequence": "CTATCTCAGATAGCTTTAGCCGGACTTTGT", "binding signal (log2 normalized intensity)": 5.18},
      {"sequence": "GGCCAACACCAAGCAAGCTCTGCAATAGAG", "binding signal (log2 normalized intensity)": -1.18},
      {"sequence": "GAATCCAGGCCAACTGGAAGTCCAGCATTC", "binding signal (log2 normalized intensity)": -1.05},
      {"sequence": "CCTCCAGCTCTTTTGAACCCAAGGCCAAAC", "binding signal (log2 normalized intensity)": 0.902},
      {"sequence": "TGTGCACAGGGTGTGGCTTCCAAGGGGAAT", "binding signal (log2 normalized intensity)": -0.711},
      {"sequence": "CAAGGGCAGAGTCCTGGGGAGGGTAAGCAT", "binding signal (log2 normalized intensity)": -1.25},
      {"sequence": "TTATCTGAGACTCAAGGCAAGTTGCTTCCA", "binding signal (log2 normalized intensity)": -0.884},
      {"sequence": "TATGTCTGATGAATAGAAAGAGGTCAATGT", "binding signal (log2 normalized intensity)": 3.05},
      {"sequence": "CAAAGAATGGAAGGCAGTGTTCCAAAGTGT", "binding signal (log2 normalized intensity)": 1.35},
      {"sequence": "CAAGTATTCAAGAAAGGGGCAAAGTTTATG", "binding signal (log2 normalized intensity)": 2.34},
      {"sequence": "TGCTGGCATCTCATTACTGACAGAGATCAA", "binding signal (log2 normalized intensity)": -1.3},
      {"sequence": "CTATAAACTTGGTTACAGGACCAGGTGTAG", "binding signal (log2 normalized intensity)": 0.0268},
      {"sequence": "CAGGGCAGGGTATGCCTGACTGTAAGAAGT", "binding signal (log2 normalized intensity)": -0.976},
      {"sequence": "TTTATTTGCTTATAGCTCAAAGTCCACCAA", "binding signal (log2 normalized intensity)": 5.7},
      {"sequence": "AATGAATATTCAGACGCATGACCTCAACTC", "binding signal (log2 normalized intensity)": 0.0483},
      {"sequence": "AGCCAGTGATTCAACTCTGACCCATAATAA", "binding signal (log2 normalized intensity)": 1.87},
      {"sequence": "CCATCTATGCACTCTCACCTTGGGGGCTGC", "binding signal (log2 normalized intensity)": -0.921},
      {"sequence": "CTTATCAGTAGTTCTCCTTTCTGCCCTTTG", "binding signal (log2 normalized intensity)": 3.65},
      {"sequence": "ATGCTGATAAGGGCCACAGATGGCCTCACT", "binding signal (log2 normalized intensity)": -0.892},
      {"sequence": "AAGTGCTAGCTTGGTCTGAACCTCATCTGT", "binding signal (log2 normalized intensity)": 1.06},
      {"sequence": "ACTGGATGGTGCCTATTTGTCCCTGACCAA", "binding signal (log2 normalized intensity)": 0.57},
      {"sequence": "GTGTAACTATTACTGGACAGCCAGCTGGTA", "binding signal (log2 normalized intensity)": 0.874},
      {"sequence": "CAAGCAATGGAGAGGATTTTGGAATGTCGC", "binding signal (log2 normalized intensity)": 0.496},
      {"sequence": "TGTACATAATCTGGACCCAAACGAATGGGC", "binding signal (log2 normalized intensity)": 0.621},
      {"sequence": "TTTTTGGTTCCCCTTCCCCCAACAGGGCTC", "binding signal (log2 normalized intensity)": 4.44},
      {"sequence": "AGCAGTGCCCAAAGCCCAAGGGATGTCCAT", "binding signal (log2 normalized intensity)": -1.13},
      {"sequence": "TTTAAGTGGGGTCAAAGGGTACAAATTCCA", "binding signal (log2 normalized intensity)": 4.76},
      {"sequence": "TCGGTAGGCTTAGGCCAGGCGGAGCACACC", "binding signal (log2 normalized intensity)": -1.2},
      {"sequence": "GGGCAAGTTACTTAAGCCATCTGCTGCCTC", "binding signal (log2 normalized intensity)": -0.98},
      {"sequence": "GGTGAGGGTTACAGGTGGACAAACAGGCTG", "binding signal (log2 normalized intensity)": -0.829},
      {"sequence": "TCAGTAAATCTGCACTTTACGTAAGATAAG", "binding signal (log2 normalized intensity)": -1.21},
      {"sequence": "GGTCGCGCCGGGCGCCGCTCTGAGTGACCT", "binding signal (log2 normalized intensity)": 2.65},
      {"sequence": "GATAAGGATTCCTGGAATGTTTGAGCTGGG", "binding signal (log2 normalized intensity)": -0.779},
      {"sequence": "GCAATGGCTGGGTCTAAGGGCAAGTGACTG", "binding signal (log2 normalized intensity)": 0.0544},
      {"sequence": "ATGGAAGGACCTTGGACTGAAGACTGGAAC", "binding signal (log2 normalized intensity)": 2.09},
      {"sequence": "GCTCTGATACTTTCTGTATCTAATCTCAGA", "binding signal (log2 normalized intensity)": -0.452},
      {"sequence": "TCTAAACCTAGCAGCCTGCCACCCAACCTG", "binding signal (log2 normalized intensity)": -1.14},
      {"sequence": "TGACAAGCAGCCTCAGTGGCTCACAAATGG", "binding signal (log2 normalized intensity)": -1.15},
      {"sequence": "GTAAAGCCACTGCCTAGATAAAAGGGTCTT", "binding signal (log2 normalized intensity)": -1.14},
      {"sequence": "CAAACAGCTTAGGGTTCAAACTCCAGCTCT", "binding signal (log2 normalized intensity)": 3.29},
      {"sequence": "GATTCACAGCAGGCTCACAAGATTGCATTC", "binding signal (log2 normalized intensity)": -1.15},
      {"sequence": "AACACTGGATAAAGTCCATATTCTTTGTTT", "binding signal (log2 normalized intensity)": 2.04},
      {"sequence": "CTCGGAGACACACTCAGGCACTGGGATCCA", "binding signal (log2 normalized intensity)": -1.11},
      {"sequence": "GAGTAAGCAATCAGATATCCATTTATCTCA", "binding signal (log2 normalized intensity)": -1.06}
    ]}
  ]
}
